Laboratory results as given in paper PMC11871038.
No constants are given. Whether binding was seen depends on the method and setting. In cells and extracts the contact can be indirect. Some results given as binding are weak or reduced against the parent protein; the word gives no strength. For some of these results: Where a sequence is shown, tags or fusion partners need not be part of it.

What was measured:
[1] = molecular target: T1, Flag-▲1-111-FBXO33 (human) (UniProt Q7Z6M2); test: co-IP; cells transfected with His-tagged p53 forms and Flag-tagged FBXO33 forms; 1 mg total protein of the lysate incubated overnight at 4 °C with antibody-magnetic bead complexes, then blotting; bait not given
T1 sequence: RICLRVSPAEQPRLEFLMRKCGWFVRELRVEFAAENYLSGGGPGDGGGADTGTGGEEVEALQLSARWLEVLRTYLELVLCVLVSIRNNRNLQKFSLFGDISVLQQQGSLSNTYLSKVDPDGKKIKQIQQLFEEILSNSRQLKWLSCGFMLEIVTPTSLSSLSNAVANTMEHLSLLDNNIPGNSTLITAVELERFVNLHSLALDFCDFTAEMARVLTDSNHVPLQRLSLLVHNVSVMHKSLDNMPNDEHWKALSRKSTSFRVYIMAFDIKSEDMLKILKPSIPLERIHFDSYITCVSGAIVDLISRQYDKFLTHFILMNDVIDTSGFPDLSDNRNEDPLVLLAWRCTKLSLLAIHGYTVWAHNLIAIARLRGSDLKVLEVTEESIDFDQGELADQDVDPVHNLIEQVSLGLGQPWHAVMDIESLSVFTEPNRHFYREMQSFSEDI

[2] = molecular target: T2, Flag-▲111-555-FBXO33 (human) (UniProt Q7Z6M2); test: as above
T2 sequence: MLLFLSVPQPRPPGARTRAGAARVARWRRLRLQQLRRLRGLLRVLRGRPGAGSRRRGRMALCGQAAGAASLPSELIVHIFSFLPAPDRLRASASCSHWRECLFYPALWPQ

[3] = molecular target: T3, Flag-WT-FBXO33 (human) (UniProt Q7Z6M2); test: as above
T3 sequence: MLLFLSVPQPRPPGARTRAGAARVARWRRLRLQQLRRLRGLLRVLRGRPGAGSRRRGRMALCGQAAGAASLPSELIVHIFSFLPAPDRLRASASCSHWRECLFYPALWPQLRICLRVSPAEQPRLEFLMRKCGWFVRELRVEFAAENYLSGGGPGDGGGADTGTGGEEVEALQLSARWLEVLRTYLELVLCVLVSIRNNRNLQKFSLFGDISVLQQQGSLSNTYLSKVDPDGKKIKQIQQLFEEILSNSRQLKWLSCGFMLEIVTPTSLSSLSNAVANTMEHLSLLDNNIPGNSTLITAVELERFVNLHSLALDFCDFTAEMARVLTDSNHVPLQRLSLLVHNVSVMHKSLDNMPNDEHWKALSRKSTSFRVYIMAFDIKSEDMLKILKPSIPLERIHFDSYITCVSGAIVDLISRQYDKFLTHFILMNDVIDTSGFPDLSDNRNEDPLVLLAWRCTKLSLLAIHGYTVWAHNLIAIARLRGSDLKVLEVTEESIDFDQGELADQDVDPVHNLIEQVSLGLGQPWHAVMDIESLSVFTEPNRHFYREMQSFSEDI

[4] = molecular target: T4, F-box only protein 33 (human) (UniProt Q7Z6M2); test: co-IP; lysates of GBC-SD and SGC-996 cells; 1 mg total protein incubated overnight at 4 °C with antibody-magnetic bead complexes, then blotting; bait not given
T4 sequence: T3 sequence

| Substance | binding [1] | binding [2] | binding [3] | binding [4] |
| --- | --- | --- | --- | --- |
| His-WT-p53 (from UniProt P04637 1-393) | binds | no binding | binds | – |
| His-▲293-393-p53 (from UniProt P04637 1-292) (domain or fragment) | – | – | binds | – |
| wild-type p53 (from UniProt P04637 1-393) | – | – | – | binds |

Now from value to substance:

| binding [1] | binding [2] | binding [3] | binding [4] | Substance |
| --- | --- | --- | --- | --- |
| – | – | binds | – | His-▲1-100-p53 (from UniProt P04637 101-393) (domain or fragment) |
| – | – | no binding | – | His-▲100–293-p53 (from UniProt P04637 1-393) (domain or fragment) |
